# Test results from the supplement of paper PMC8728848.
# Some of the results follow.
# B1: Banana lectin (Musa acuminata) (protein)
# chain: MNGAIKVGAWGGNGGSAFDMGPAYRIISVKIFSGDVVDGVDVTFTYYGKTETRHYGGSGGTPHEIVLQEGEYLVGMAGEVANYTGAVVLGKLGFSTNKKAYGPFGNTGGTPFSLPIAAGKISGFFGRGGKFLDAIGVYLEPLEHHHHHH
# Legend:
# Test in all cases: glycan array binding signal (z-score within array); higher = stronger binding
# Conditions in all cases: glycan notation: IUPAC condensed, linker removed; mutation: H84T
# [1] = biological target: GlcNAc(a1-6)Gal(b1-4)GlcNAc
# In short: (§1)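 The Consortium for Functional Glycomics database supplied 3228 glycan arrays, of which those lacking an available protein sequence were dropped. The binding signal, a within-array Z-score, was averaged across arrays of the same protein sequence and across linkers. Negative scores can be read as non-binding.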
# [2] = biological target: GlcNAc(b1-2)Gal(b1-3)GalNAc
# In short: as §1
# [3] = biological target: GlcNAc(b1-2)Man(a1-3)[GlcNAc(b1-2)Man(a1-6)]Man(b1-4)GlcNAc(b1-4)GlcNAc
# In short: as §1
# [4] = biological target: GlcNAc(b1-2)Man(a1-3)[GlcNAc(b1-2)Man(a1-6)]Man(b1-4)GlcNAc(b1-4)[Fuc(a1-6)]GlcNAc
# In short: as §1
# [5] = biological target: GlcNAc(b1-2)Man(a1-3)[GlcNAc(b1-4)][GlcNAc(b1-2)Man(a1-6)]Man(b1-4)GlcNAc(b1-4)GlcNAc
# In short: as §1
# [6] = biological target: GlcNAc(b1-2)Man(a1-3)[GlcNAc(b1-4)][GlcNAc(b1-2)Man(a1-6)]Man(b1-4)GlcNAc(b1-4)[Fuc(a1-6)]GlcNAc
# In short: as §1
# [7] = biological target: GlcNAc(b1-2)[GlcNAc(b1-4)]Man(a1-3)[GlcNAc(b1-2)Man(a1-6)]Man(b1-4)GlcNAc(b1-4)GlcNAc
# In short: as §1
# [8] = biological target: GlcNAc(b1-2)[GlcNAc(b1-4)]Man(a1-3)[GlcNAc(b1-4)][GlcNAc(b1-2)Man(a1-6)]Man(b1-4)GlcNAc(b1-4)GlcNAc
# In short: as §1
# [9] = biological target: GlcNAc(b1-2)[GlcNAc(b1-4)]Man(a1-3)[GlcNAc(b1-4)][GlcNAc(b1-2)[GlcNAc(b1-6)]Man(a1-6)]Man(b1-4)GlcNAc(b1-4)GlcNAc
# In short: as §1
# [10] = biological target: GlcNAc(b1-2)[GlcNAc(b1-4)]Man(a1-3)[GlcNAc(b1-4)][GlcNAc(b1-2)[GlcNAc(b1-6)]Man(a1-6)]Man(b1-4)GlcNAc(b1-4)[Fuc(a1-6)]GlcNAc
# In short: as §1
# [11] = biological target: GlcNAc(b1-2)[GlcNAc(b1-6)]Man(a1-6)[GlcNAc(b1-2)Man(a1-3)]Man(b1-4)GlcNAc(b1-4)GlcNAc
# In short: as §1
# [12] = biological target: GlcNAc(b1-2)[GlcNAc(b1-6)]Man(a1-6)[GlcNAc(b1-2)Man(a1-3)]Man(b1-4)GlcNAc(b1-4)[Fuc(a1-6)]GlcNAc
# In short: as §1
# [13] = biological target: GlcNAc(b1-2)[GlcNAc(b1-6)]Man(a1-6)[GlcNAc(b1-4)][GlcNAc(b1-2)Man(a1-3)]Man(b1-4)GlcNAc(b1-4)GlcNAc
# In short: as §1
# GlcNAc(b1-3)Fuc = biological target: GlcNAc(b1-3)Fuc
# In short: as §1
# GlcNAc(b1-3)Gal = biological target: GlcNAc(b1-3)Gal
# In short: as §1
# [14] = biological target: GlcNAc(b1-3)Gal(b1-3)GalNAc
# In short: as §1
# GlcNAc(b1-3)Gal(b1-4)Glc = biological target: GlcNAc(b1-3)Gal(b1-4)Glc
# In short: as §1
# [15] = biological target: GlcNAc(b1-3)Gal(b1-4)GlcNAc
# In short: as §1
# [16] = biological target: GlcNAc(b1-3)Gal(b1-4)GlcNAc(b1-2)Man(a1-3)[GlcNAc(b1-3)Gal(b1-4)GlcNAc(b1-2)Man(a1-6)]Man(b1-4)GlcNAc(b1-4)GlcNAc
# In short: as §1
# [17] = biological target: GlcNAc(b1-3)Gal(b1-4)GlcNAc(b1-2)Man(a1-3)[GlcNAc(b1-3)Gal(b1-4)GlcNAc(b1-2)Man(a1-6)]Man(b1-4)GlcNAc(b1-4)[Fuc(a1-6)]GlcNAc
# In short: as §1
# [18] = biological target: GlcNAc(b1-3)Gal(b1-4)GlcNAc(b1-2)[GlcNAc(b1-3)Gal(b1-4)GlcNAc(b1-6)]Man(a1-6)[GlcNAc(b1-3)Gal(b1-4)GlcNAc(b1-2)Man(a1-3)]Man(b1-4)GlcNAc(b1-4)GlcNAc
# In short: as §1
# [19] = biological target: GlcNAc(b1-3)Gal(b1-4)GlcNAc(b1-3)Gal(b1-4)GlcNAc
# In short: as §1
# [20] = biological target: GlcNAc(b1-3)Gal(b1-4)GlcNAc(b1-3)Gal(b1-4)GlcNAc(b1-2)Man(a1-3)[GlcNAc(b1-3)Gal(b1-4)GlcNAc(b1-3)Gal(b1-4)GlcNAc(b1-2)Man(a1-6)]Man(b1-4)GlcNAc(b1-4)GlcNAc
# In short: as §1
# [21] = biological target: GlcNAc(b1-3)Gal(b1-4)GlcNAc(b1-3)Gal(b1-4)GlcNAc(b1-2)Man(a1-3)[GlcNAc(b1-3)Gal(b1-4)GlcNAc(b1-3)Gal(b1-4)GlcNAc(b1-2)Man(a1-6)]Man(b1-4)GlcNAc(b1-4)[Fuc(a1-6)]GlcNAc
# In short: as §1
# [22] = biological target: GlcNAc(b1-3)Gal(b1-4)GlcNAc(b1-3)Gal(b1-4)GlcNAc(b1-2)[GlcNAc(b1-3)Gal(b1-4)GlcNAc(b1-3)Gal(b1-4)GlcNAc(b1-6)]Man(a1-6)[GlcNAc(b1-3)Gal(b1-4)GlcNAc(b1-3)Gal(b1-4)GlcNAc(b1-2)Man(a1-3)]Man(b1-4)GlcNAc(b1-4)[Fuc(a1-6)]GlcNAc
# In short: as §1
# [23] = biological target: GlcNAc(b1-3)Gal(b1-4)GlcNAc(b1-3)Gal(b1-4)GlcNAc(b1-3)Gal(b1-4)GlcNAc(b1-2)Man(a1-3)[GlcNAc(b1-3)Gal(b1-4)GlcNAc(b1-3)Gal(b1-4)GlcNAc(b1-3)Gal(b1-4)GlcNAc(b1-2)Man(a1-6)]Man(b1-4)GlcNAc(b1-4)GlcNAc
# In short: as §1
# [24] = biological target: GlcNAc(b1-3)Gal(b1-4)GlcNAc(b1-3)Gal(b1-4)GlcNAc(b1-3)Gal(b1-4)GlcNAc(b1-2)Man(a1-3)[GlcNAc(b1-3)Gal(b1-4)GlcNAc(b1-3)Gal(b1-4)GlcNAc(b1-3)Gal(b1-4)GlcNAc(b1-2)Man(a1-6)]Man(b1-4)GlcNAc(b1-4)[Fuc(a1-6)]GlcNAc
# In short: as §1
# [25] = biological target: GlcNAc(b1-3)Gal(b1-4)GlcNAc(b1-3)Gal(b1-4)GlcNAc(b1-3)Gal(b1-4)GlcNAc(b1-2)[GlcNAc(b1-3)Gal(b1-4)GlcNAc(b1-3)Gal(b1-4)GlcNAc(b1-3)Gal(b1-4)GlcNAc(b1-6)]Man(a1-6)[GlcNAc(b1-3)Gal(b1-4)GlcNAc(b1-3)Gal(b1-4)GlcNAc(b1-3)Gal(b1-4)GlcNAc(b1-2)Man(a1-3)]Man(b1-4)GlcNAc(b1-4)[Fuc(a1-6)]GlcNAc
# In short: as §1
# [26] = biological target: GlcNAc(b1-3)Gal(b1-4)GlcNAc(b1-3)Gal(b1-4)GlcNAc(b1-3)Gal(b1-4)GlcNAc(b1-3)Gal(b1-4)GlcNAc(b1-2)Man(a1-3)[GlcNAc(b1-3)Gal(b1-4)GlcNAc(b1-3)Gal(b1-4)GlcNAc(b1-3)Gal(b1-4)GlcNAc(b1-3)Gal(b1-4)GlcNAc(b1-2)Man(a1-6)]Man(b1-4)GlcNAc(b1-4)GlcNAc
# In short: as §1
# [27] = biological target: GlcNAc(b1-3)Gal(b1-4)GlcNAc(b1-3)Gal(b1-4)GlcNAc(b1-3)Gal(b1-4)GlcNAc(b1-3)Gal(b1-4)GlcNAc(b1-2)Man(a1-3)[GlcNAc(b1-3)Gal(b1-4)GlcNAc(b1-3)Gal(b1-4)GlcNAc(b1-3)Gal(b1-4)GlcNAc(b1-3)Gal(b1-4)GlcNAc(b1-2)Man(a1-6)]Man(b1-4)GlcNAc(b1-4)[Fuc(a1-6)]GlcNAc
# In short: as §1
# [28] = biological target: GlcNAc(b1-3)Gal(b1-4)GlcNAc(b1-3)Gal(b1-4)GlcNAc(b1-3)Gal(b1-4)GlcNAc(b1-3)Gal(b1-4)GlcNAc(b1-2)[GlcNAc(b1-3)Gal(b1-4)GlcNAc(b1-3)Gal(b1-4)GlcNAc(b1-3)Gal(b1-4)GlcNAc(b1-3)Gal(b1-4)GlcNAc(b1-6)]Man(a1-6)[GlcNAc(b1-3)Gal(b1-4)GlcNAc(b1-3)Gal(b1-4)GlcNAc(b1-3)Gal(b1-4)GlcNAc(b1-3)Gal(b1-4)GlcNAc(b1-2)Man(a1-3)]Man(b1-4)GlcNAc(b1-4)[Fuc(a1-6)]GlcNAc
# In short: as §1
# [29] = biological target: GlcNAc(b1-3)Gal(b1-4)GlcNAc(b1-3)Gal(b1-4)GlcNAc(b1-3)GalNAc
# In short: as §1
# [30] = biological target: GlcNAc(b1-3)Gal(b1-4)GlcNAc(b1-3)GalNAc
# In short: as §1
# [31] = biological target: GlcNAc(b1-3)Gal(b1-4)GlcNAc(b1-3)[GlcNAc(b1-3)Gal(b1-4)GlcNAc(b1-3)]GalNAc
# In short: as §1
# [32] = biological target: GlcNAc(b1-3)Gal(b1-4)GlcNAc(b1-6)[Gal(b1-3)]GalNAc
# In short: as §1
# [33] = biological target: GlcNAc(b1-3)Gal(b1-4)GlcNAc(b1-6)[GlcNAc(b1-3)Gal(b1-3)]GalNAc
# In short: as §1
# [34] = biological target: GlcNAc(b1-3)Gal(b1-4)GlcNAc(b1-6)[GlcNAc(b1-3)]Gal(b1-4)GlcNAc
# In short: as §1
# GlcNAc(b1-3)GalNAc = biological target: GlcNAc(b1-3)GalNAc
# In short: as §1
# GlcNAc(b1-3)Man = biological target: GlcNAc(b1-3)Man
# In short: as §1
# [35] = biological target: GlcNAc(b1-3)[GlcNAc(b1-4)][GlcNAc(b1-6)]GlcNAc
# In short: as §1
# [36] = biological target: GlcNAc(b1-3)[GlcNAc(b1-6)]Gal(b1-4)GlcNAc
# In short: as §1
# [37] = biological target: GlcNAc(b1-3)[GlcNAc(b1-6)]GalNAc
# In short: as §1
# [38] = biological target: GlcNAc(b1-4)Gal(b1-4)GlcNAc
# In short: as §1
# GlcNAc(b1-4)GlcNAc = biological target: GlcNAc(b1-4)GlcNAc
# In short: as §1
# [39] = biological target: GlcNAc(b1-4)GlcNAc(b1-4)GlcNAc
# In short: as §1
binder,measurement,setting,value
B1,glycan array binding signal (z-score),[1],-0.157
same,glycan array binding signal (z-score),[2],-0.173
same,glycan array binding signal (z-score),[3],-0.106
same,glycan array binding signal (z-score),[4],-0.179
same,glycan array binding signal (z-score),[5],-0.181
same,glycan array binding signal (z-score),[6],-0.176
same,glycan array binding signal (z-score),[7],-0.164
same,glycan array binding signal (z-score),[8],-0.19
same,glycan array binding signal (z-score),[9],-0.193
same,glycan array binding signal (z-score),[10],-0.156
same,glycan array binding signal (z-score),[11],-0.182
same,glycan array binding signal (z-score),[12],-0.12
same,glycan array binding signal (z-score),[13],-0.206
same,glycan array binding signal (z-score),GlcNAc(b1-3)Fuc,-0.179
same,glycan array binding signal (z-score),GlcNAc(b1-3)Gal,-0.186
same,glycan array binding signal (z-score),[14],-0.164
same,glycan array binding signal (z-score),GlcNAc(b1-3)Gal(b1-4)Glc,-0.173
same,glycan array binding signal (z-score),[15],-0.188
same,glycan array binding signal (z-score),[16],-0.151
same,glycan array binding signal (z-score),[17],-0.178
same,glycan array binding signal (z-score),[18],-0.125
same,glycan array binding signal (z-score),[19],-0.214
same,glycan array binding signal (z-score),[20],-0.141
same,glycan array binding signal (z-score),[21],-0.119
same,glycan array binding signal (z-score),[22],-0.137
same,glycan array binding signal (z-score),[23],-0.199
same,glycan array binding signal (z-score),[24],-0.082
same,glycan array binding signal (z-score),[25],-0.082
same,glycan array binding signal (z-score),[26],-0.146
same,glycan array binding signal (z-score),[27],-0.142
same,glycan array binding signal (z-score),[28],-0.05
same,glycan array binding signal (z-score),[29],-0.171
same,glycan array binding signal (z-score),[30],-0.167
same,glycan array binding signal (z-score),[31],-0.16
same,glycan array binding signal (z-score),[32],-0.188
same,glycan array binding signal (z-score),[33],-0.14
same,glycan array binding signal (z-score),[34],-0.185
same,glycan array binding signal (z-score),GlcNAc(b1-3)GalNAc,-0.155
same,glycan array binding signal (z-score),GlcNAc(b1-3)Man,-0.18
same,glycan array binding signal (z-score),[35],-0.18
same,glycan array binding signal (z-score),[36],-0.174
same,glycan array binding signal (z-score),[37],-0.191
same,glycan array binding signal (z-score),[38],-0.132
same,glycan array binding signal (z-score),GlcNAc(b1-4)GlcNAc,-0.197
same,glycan array binding signal (z-score),[39],-0.203
